Assay [1] deals with CD8α-EGFP (UniProt P01731). Put plainly: FRET or BRET; homo-FRET (steady-state fluorescence anisotropy of EGFP, time-domain, TCSPC) at the plasma membrane of living transfected Jurkat cells on PLL-coated slides, 37 °C; semi-quantitative, calibrated by monomeric LAT and dimeric CD8α. In general terms: BRET reads energy transfer from a luciferase to a nearby fluorophore.
Assay [2] has as its target T1, LAT-EGFP, O43561.
T1 chain: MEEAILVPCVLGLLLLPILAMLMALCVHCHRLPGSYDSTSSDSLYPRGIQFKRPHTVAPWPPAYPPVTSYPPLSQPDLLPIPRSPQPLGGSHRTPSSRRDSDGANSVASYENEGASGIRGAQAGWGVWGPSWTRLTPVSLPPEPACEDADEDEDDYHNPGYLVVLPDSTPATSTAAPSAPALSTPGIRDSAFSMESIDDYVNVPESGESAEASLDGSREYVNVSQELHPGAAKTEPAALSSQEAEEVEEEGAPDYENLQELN
The assay is described as above. As to conditions: remark: other sources report otherwise.

Amino acid sequences for entries named in this document (tags omitted). Residues count along the entry.
UniProt P01731, residues 28-247: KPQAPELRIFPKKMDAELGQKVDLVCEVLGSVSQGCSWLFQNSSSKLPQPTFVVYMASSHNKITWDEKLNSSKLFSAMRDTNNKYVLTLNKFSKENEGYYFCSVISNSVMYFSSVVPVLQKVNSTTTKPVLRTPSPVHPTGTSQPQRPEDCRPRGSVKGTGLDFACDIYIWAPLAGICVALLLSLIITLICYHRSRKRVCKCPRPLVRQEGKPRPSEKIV

Assay [3] addresses EGFP-Nkrp1f (mouse (C57BL/6)) (UniProt Q8VD98). The experiment in a line: reducing SDS-PAGE with anti-GFP immunoblotting; lysates of transfected COS-7 cells as in a2, reducing conditions (100 mM DTT).
The target is the same in assay [4]. The experiment in a line: non-reducing SDS-PAGE with anti-GFP immunoblotting; lysates of transfected COS-7 cells (1% n-decyl-β-D-maltopyranoside, 40 mM iodoacetamide, on ice), 10% gel, non-reducing conditions. (In general: A western blot detects proteins with antibodies after separation by electrophoresis.)
The target is the same in assay [5]. Put plainly: FRET or BRET; homo-FRET (steady-state fluorescence anisotropy of EGFP, time-domain, TCSPC) at the plasma membrane of living transfected Jurkat cells on PLL-coated slides, 37 °C; semi-quantitative, calibrated by monomeric LAT and dimeric CD8α.
In assay [6] the target is EGFP-Nkrp1f_C74S (mouse (C57BL/6)) (UniProt Q8VD98). The experiment in a line: reducing SDS-PAGE with anti-GFP immunoblotting; lysates of transfected COS-7 cells as in a2, reducing conditions (100 mM DTT).
Assay [7] shares this target. The experiment in a line: non-reducing SDS-PAGE with anti-GFP immunoblotting; lysates of transfected COS-7 cells (1% n-decyl-β-D-maltopyranoside, 40 mM iodoacetamide, on ice), 10% gel, non-reducing conditions.
The target is the same in assay [8]. The experiment in a line: FRET or BRET; homo-FRET (steady-state fluorescence anisotropy of EGFP, time-domain, TCSPC) at the plasma membrane of living transfected Jurkat cells on PLL-coated slides, 37 °C; semi-quantitative, calibrated by monomeric LAT and dimeric CD8α.
Assay [9] concerns the target EGFP-Nkrp1c1 (mouse (C57BL/6)) (UniProt P27814). Put plainly: reducing SDS-PAGE with anti-GFP immunoblotting; lysates of transfected COS-7 cells as in a2, reducing conditions (100 mM DTT).
Assay [10] shares this target. Put plainly: non-reducing SDS-PAGE with anti-GFP immunoblotting; lysates of transfected COS-7 cells (1% n-decyl-β-D-maltopyranoside, 40 mM iodoacetamide, on ice), 10% gel, non-reducing conditions.
Assay [11] shares this target. The experiment in a line: FRET or BRET; homo-FRET (steady-state fluorescence anisotropy of EGFP, time-domain, TCSPC) at the plasma membrane of living transfected Jurkat cells on PLL-coated slides, 37 °C; semi-quantitative, calibrated by monomeric LAT and dimeric CD8α.
In assay [12] the target is EGFP-Nkrp1c1_C74,75S (mouse (C57BL/6)) (UniProt P27814). Put plainly: reducing SDS-PAGE with anti-GFP immunoblotting; lysates of transfected COS-7 cells as in a2, reducing conditions (100 mM DTT).
Assay [13] has the same target. The experiment in a line: non-reducing SDS-PAGE with anti-GFP immunoblotting; lysates of transfected COS-7 cells (1% n-decyl-β-D-maltopyranoside, 40 mM iodoacetamide, on ice), 10% gel, non-reducing conditions.

These are yes or no findings as the source states them, for the method shown. For some of these results: In cells and extracts the contact can be indirect. Some results given as binding are weak or reduced against the parent protein; the word gives no strength. For some of these results: Where a sequence is shown, tags or fusion partners need not be part of it.

Turning to “CD8α-EGFP (from UniProt P01731 28-247) (receptor)”, the binding result in assay [1] is “binds”.

B1: LAT-EGFP, O43561 1-262 (protein)
chain: MEEAILVPCVLGLLLLPILAMLMALCVHCHRLPGSYDSTSSDSLYPRGIQFKRPHTVAPWPPAYPPVTSYPPLSQPDLLPIPRSPQPLGGSHRTPSSRRDSDGANSVASYENEGASGIRGAQAGWGVWGPSWTRLTPVSLPPEPACEDADEDEDDYHNPGYLVVLPDSTPATSTAAPSAPALSTPGIRDSAFSMESIDDYVNVPESGESAEASLDGSREYVNVSQELHPGAAKTEPAALSSQEAEEVEEEGAPDYENLQELN
In the case of B1, in assay [2], the binding entry is recorded as “no binding”.

B2: EGFP-Nkrp1f (receptor, mouse (C57BL/6), UniProt Q8VD98 1-217, looked up)
chain: MDTSKVHGNVKPFRCPGYKQASSPSFSPDACRCPHWHHLALKSGCAGLILLLLSLIGLSVLVRFLVQKPPIEKCSVAAQENRTELTGRSAILECPRYWHPHWNKCLFVSQISRPWAEGRDACSMEDAILLLIENKEELRFVQNLIKGKEQLFFIGLKYVQKEKIWKWIDGSILNPNLLRITGKDKENSCAIISHTEVFSDSCSSDNHWICQKTLIHV
notes: last residue V217; Vector pXJ41; also called f isoform; source: Jurkat, transiently transfected, living cells; COS-7, transiently transfected, in lysate; not shown: EGFP (with spacer GSGGGS), N-terminal, kept
With B2, the results for the binding entry in assay [3], in assay [4] and in assay [5] were “no binding (condition: reducing conditions (100 mM DTT))”, “binds” and “binds”, respectively.

B3: EGFP-Nkrp1f_C74S (receptor, mouse (C57BL/6), UniProt Q8VD98 1-217, looked up)
chain: MDTSKVHGNVKPFRCPGYKQASSPSFSPDACRCPHWHHLALKSGCAGLILLLLSLIGLSVLVRFLVQKPPIEKSSVAAQENRTELTGRSAILECPRYWHPHWNKCLFVSQISRPWAEGRDACSMEDAILLLIENKEELRFVQNLIKGKEQLFFIGLKYVQKEKIWKWIDGSILNPNLLRITGKDKENSCAIISHTEVFSDSCSSDNHWICQKTLIHV
notes: Two extra C-terminal residues (Thr-Gly) possible as for m8 (surmise from the primer); also called C74S mutant of Nkrp1f; source: Jurkat, transiently transfected, living cells; COS-7, transiently transfected, in lysate; not shown: EGFP (with spacer GSGGGS), N-terminal, kept
Consider B3, for which the binding entry in assay [6] is given as “no binding (condition: reducing conditions (100 mM DTT))”; in assay [7], “binds”; in assay [8] it was “binds weakly”.

B4: EGFP-Nkrp1c1 (receptor, mouse (C57BL/6), UniProt P27814 1-223, looked up)
chain: MDTASIYLGLKPPRTLGAWHESPPSLPPDACRCPRSHRLALKLSCAGLILLVLTLIGMSVLVRVLVQKPSREKCCVFIQENLNKTTDCSVNLECPQDWLLHRDKCFHVSQVSNTWEEGQADCGRKGATLLLIQDQEELRFLLDSIKEKYNSFWIGLRFTLPDMNWKWINGTTFNSDVLKITGVTENGSCASILGDKVTPESCASDNRWICQKELNHETPSNDS
notes: last residue S223; Vector pXJ41; also called c1 isoform; source: Jurkat, transiently transfected, living cells; COS-7, transiently transfected, in lysate; not shown: EGFP (with spacer GSGGGS), N-terminal, kept
Regarding B4, the binding entry in [9] was “no binding (condition: reducing conditions (100 mM DTT))”; in [10], “binds”; in [11], “binds”.

B5: EGFP-Nkrp1c1_C74,75S (receptor, UniProt P27814 1-223)
chain: MDTASIYLGLKPPRTLGAWHESPPSLPPDACRCPRSHRLALKLSCAGLILLVLTLIGMSVLVRVLVQKPSREKSSVFIQENLNKTTDCSVNLECPQDWLLHRDKCFHVSQVSNTWEEGQADCGRKGATLLLIQDQEELRFLLDSIKEKYNSFWIGLRFTLPDMNWKWINGTTFNSDVLKITGVTENGSCASILGDKVTPESCASDNRWICQKELNHETPSNDS
Turning to B5, the binding entry in [12] was “no binding (condition: reducing conditions (100 mM DTT))”; in assay [13] it was “binds”.

The record behind these values is article PMC6515139, “Oligomeric Architecture of Mouse Activating Nkrp1 Receptors on Living Cells” (International Journal of Molecular Sciences, 2019).
